From the supplement of paper PMC6657886

How the values were obtained:
Assay in all cases: Agar dilution on enriched GC agar; resistance determinants by microarray.
spectinomycin = compound: CN[C@@H]1[C@H](O)[C@H](NC)[C@H]2O[C@@]3(O)C(=O)C[C@@H](C)O[C@H]3O[C@@H]2[C@H]1O [spectinomycin]
benzylpenicillin = compound: CC1(C)S[C@@H]2[C@H](NC(=O)Cc3ccccc3)C(=O)N2[C@H]1C(=O)O [benzylpenicillin]
azithromycin = compound: CC[C@H]1OC(=O)[C@H](C)[C@@H](O[C@H]2C[C@@](C)(OC)[C@@H](O)[C@H](C)O2)[C@H](C)[C@@H](O[C@@H]2O[C@H](C)C[C@H](N(C)C)[C@H]2O)[C@](C)(O)C[C@@H](C)CN(C)[C@H](C)[C@@H](O)[C@]1(C)O [azithromycin]
ceftriaxone = compound: CO/N=C(\C(=O)N[C@@H]1C(=O)N2C(C(=O)O)=C(CSc3nc(=O)c(O)nn3C)CS[C@H]12)c1csc(N)n1 [ceftriaxone]
tetracycline = compound: CN(C)[C@@H]1C(O)=C(C(N)=O)C(=O)[C@@]2(O)C(O)=C3C(=O)c4c(O)cccc4[C@@](C)(O)[C@H]3C[C@@H]12 [tetracycline]

Test System	MIC (spectinomycin)	MIC (benzylpenicillin)	MIC (azithromycin)	MIC (ceftriaxone)	MIC (tetracycline)
Neisseria gonorrhoeae isolate 161 (blaTEM plasmid: no, gyrA: wild type, mtrR promoter: wild type, parC: wild type, penA: ins345Asp, ponA: wild type, porB: wild type, rpsJ: Met57, tetM plasmid: no)	16 mg/L	0.03 mg/L	0.25 mg/L	≤ 2 ng/mL	0.5 mg/L
Neisseria gonorrhoeae isolate 362 (blaTEM plasmid: no, gyrA: Phe91, Asp95, mtrR promoter: -35delA, parC: wild type, penA: ins345Asp, ponA: Pro421, porB: Asp120, Gly121, rpsJ: Met57, tetM plasmid: no)	16 mg/L	0.5 mg/L	0.25 mg/L	8 ng/mL	1 mg/L
Neisseria gonorrhoeae isolate 17 (blaTEM plasmid: no, gyrA: wild type, mtrR promoter: wild type, parC: wild type, penA: wild type, ponA: wild type, porB: wild type, rpsJ: wild type, tetM plasmid: no)	16 mg/L	≤ 0.015 mg/L	0.12 mg/L	≤ 2 ng/mL	0.25 mg/L
Neisseria gonorrhoeae isolate 277 (blaTEM plasmid: no, gyrA: wild type, mtrR promoter: wild type, parC: wild type, penA: ins345Asp, ponA: Pro421, porB: Lys 120, Asp121, rpsJ: wild type, tetM plasmid: no)	32 mg/L	0.5 mg/L	0.5 mg/L	8 ng/mL	2 mg/L
Neisseria gonorrhoeae isolate 218 (blaTEM plasmid: no, gyrA: wild type, mtrR promoter: wild type, parC: wild type, penA: ins345Asp, ponA: wild type, porB: wild type, rpsJ: wild type, tetM plasmid: no)	8 mg/L	≤ 0.015 mg/L	0.015 mg/L	≤ 2 ng/mL	0.12 mg/L
Neisseria gonorrhoeae isolate 151 (blaTEM plasmid: no, gyrA: Phe91, Asp95, mtrR promoter: -35delA, parC: wild type, penA: ins345Asp, ponA: Pro421, porB: Asn120, Asp121, rpsJ: Met57, tetM plasmid: no)	16 mg/L	0.12 mg/L	0.12 mg/L	4 ng/mL	4 mg/L
Neisseria gonorrhoeae isolate 189 (blaTEM plasmid: no, gyrA: Thr91, Gly95, mtrR promoter: -35delA, parC: wild type, penA: ins345Asp, ponA: Pro421, porB: wild type, rpsJ: wild type, tetM plasmid: no)	32 mg/L	0.12 mg/L	0.06 mg/L	≤ 2 ng/mL	1 mg/L
Neisseria gonorrhoeae isolate 126 (blaTEM plasmid: no, gyrA: wild type, mtrR promoter: wild type, parC: Arg87, Glu91, penA: ins345Asp, ponA: wild type, porB: wild type, rpsJ: Met57, tetM plasmid: no)	16 mg/L	0.03 mg/L	0.12 mg/L	≤ 2 ng/mL	2 mg/L
Neisseria gonorrhoeae isolate 286 (blaTEM plasmid: no, gyrA: wild type, mtrR promoter: wild type, parC: wild type, penA: ins345Asp, ponA: wild type, porB: wild type, rpsJ: Met57, tetM plasmid: no)	32 mg/L	0.12 mg/L	0.5 mg/L	≤ 2 ng/mL	2 mg/L
Neisseria gonorrhoeae isolate 440 (blaTEM plasmid: no, gyrA: Thr91, Gly95, mtrR promoter: wild type, parC: wild type, penA: wild type, ponA: Pro421, porB: wild type, rpsJ: Met57, tetM plasmid: no)	32 mg/L	0.25 mg/L	0.12 mg/L	4 ng/mL	0.25 mg/L
Neisseria gonorrhoeae isolate 327 (blaTEM plasmid: no, gyrA: Phe91, Asn 95, mtrR promoter: -35delA, parC: Ser87, Gly91, penA: ins345Asp, ponA: Pro421, porB: Asn120, Asp121, rpsJ: Met57, tetM plasmid: no)	32 mg/L	0.5 mg/L	0.12 mg/L	15 ng/mL	2 mg/L
Neisseria gonorrhoeae isolate 84 (blaTEM plasmid: no, gyrA: Phe91, Asn95, mtrR promoter: -35delA, parC: wild type, penA: ins345Asp, ponA: Pro421, porB: Asn120, Asp121, rpsJ: Met57, tetM plasmid: no)	16 mg/L	0.5 mg/L	0.25 mg/L	30 ng/mL	2 mg/L
Neisseria gonorrhoeae isolate 510 (blaTEM plasmid: no, gyrA: Phe91, Asn95, mtrR promoter: -35delA, parC: Arg 87, Glu91, penA: ins345Asp, ponA: Pro421, porB: wild type, rpsJ: Met57, tetM plasmid: no)	32 mg/L	1 mg/L	1 mg/L	15 ng/mL	1 mg/L
Neisseria gonorrhoeae isolate 26 (blaTEM plasmid: no, gyrA: wild type, mtrR promoter: wild type, parC: wild type, penA: ins345Asp, ponA: wild type, porB: wild type, rpsJ: wild type, tetM plasmid: no)	32 mg/L	0.12 mg/L	0.015 mg/L	≤ 2 ng/mL	0.12 mg/L
Neisseria gonorrhoeae isolate 321 (blaTEM plasmid: no, gyrA: wild type, mtrR promoter: wild type, parC: wild type, penA: ins345Asp, ponA: wild type, porB: wild type, rpsJ: wild type, tetM plasmid: no)	16 mg/L	0.06 mg/L	0.12 mg/L	≤ 2 ng/mL	0.12 mg/L
Neisseria gonorrhoeae isolate 338 (blaTEM plasmid: no, gyrA: Phe91, Gly95, mtrR promoter: -35delA, parC: Arg87, Glu91, penA: ins345Asp, ponA: Pro421, porB: wild type, rpsJ: Met57, tetM plasmid: no)	8 mg/L	0.5 mg/L	0.25 mg/L	8 ng/mL	2 mg/L
Neisseria gonorrhoeae isolate 168 (blaTEM plasmid: no, gyrA: Phe91, Asp95, mtrR promoter: wild type, parC: wild type, penA: ins345Asp, ponA: Pro421, porB: wild type, rpsJ: Met57, tetM plasmid: no)	8 mg/L	≤ 0.015 mg/L	0.03 mg/L	≤ 2 ng/mL	0.25 mg/L
Neisseria gonorrhoeae isolate 16 (blaTEM plasmid: no, gyrA: Thr91, Gly95, mtrR promoter: wild type, parC: wild type, penA: ins345Asp, ponA: Pro421, porB: wild type, rpsJ: Met57, tetM plasmid: no)	16 mg/L	0.06 mg/L	0.015 mg/L	≤ 2 ng/mL	0.5 mg/L
Neisseria gonorrhoeae isolate 56 (blaTEM plasmid: no, gyrA: Phe91, Asn95, mtrR promoter: wild type, parC: Arg87, Glu91, penA: ins345Asp, ponA: Pro421, porB: wild type, rpsJ: Met57, tetM plasmid: no)	16 mg/L	0.5 mg/L	0.12 mg/L	4 ng/mL	0.25 mg/L
Neisseria gonorrhoeae isolate 262 (blaTEM plasmid: no, gyrA: wild type, mtrR promoter: wild type, parC: wild type, penA: ins345Asp, ponA: wild type, porB: wild type, rpsJ: wild type, tetM plasmid: no)	16 mg/L	0.12 mg/L	0.03 mg/L	≤ 2 ng/mL	0.25 mg/L

MIC of clinical N. gonorrhoeae isolates (2015-2017) by agar dilution on GC agar with 1% IsoVitaleX (ranges not stated); higher = less susceptible. No active / inactive call per row; the paper counts benzylpenicillin above 1 and ceftriaxone above 0.125 mg/L as resistant (EUCAST). The method is stated for benzylpenicillin and ceftriaxone and assumed for the other drugs. '<=' is inferred from pile-ups at the end values. Isolates are numbered anew.
